This is a noisy data set.
B1: Ydj1; a variant is named by its letters at X, in order (parent)
chain: MVKETKFYDILGVPVTATDVEIKKAYRKCALKYHPDKNPSEEAAEKFKEASAAYEILSDPEKRDIYDQFGEDGLSGAGGAGGFPGGGFGFGDDIFSQFFGAGGAQRPRGPQRGKDIKHEISASLEELYKGRTAKLALNKQILCKECEGRGGKKGAVKKCTSCNGQGIKFVTRQMGPMIQRFQTECDVCHGTGDIIDPKDRCKSCNGKKVENERKILEVHVEPGMKDGQRIVFKGEADQAPDVIPGDVVFIVSERPHKSFKRDGDDLVYEAEIDLLTAIAGGEFALEHVSGDWLKVGIVPGEVIAPGMRKVIEGKGMPIPKYGGYGNLIIKFTIKFPENHFTSEENLKKLEEILPPRIVPAIPKKATVDECVLADFDPAKYNRTRASRGGANYDSDEEEQGGEGVQCXXX

Variants of: B1
Experiment: enrichment factor, frequency at 37 °C / frequency at 25 °C (thermotolerance selection) (ratio); higher = more growth at 37 °C, higher likelihood of farnesylation
Settings: with Saccharomyces cerevisiae ydj1Δ (yWS304); selective temperature 37 °C; reference temperature 25 °C
Description: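 Pooled library of all 8,000 Ydj1-CXXX C-terminal motif variants (native CASQ replaced by C + three variable residues, one codon per amino acid) expressed from a CEN plasmid in S. cerevisiae ydj1Δ (yWS304). The library was grown in SC-Ura liquid to A600 ~2 (~8 generations) at permissive 25 °C or selective 37 °C. Reads from 8 and 7 replicates were pooled and variants counted by NGS. Enrichment factor = frequency at 37 °C / frequency at 25 °C, with a +1 correction; it reports Ydj1-dependent thermotolerance, used as a read-out of farnesylation by yeast FTase.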

Variant | enrichment factor
NGA | 0.787
PGA | 0.99
CGA | 0.732
QGA | 1.12
RGA | 1.78
SGA | 1.33
TGA | 1.83
VGA | 1.19
WGA | 1.26
YGA | 0.646
DGA | 0.164
AGC | 0.914
EGC | 1.31
FGC | 0.11
GGC | 0.544
HGC | 1.33
IGC | 0.155
KGC | 1.22
LGC | 0.131
MGC | 0.123
NGC | 1.4
PGC | 1.16
CGC | 0.0739
QGC | 1.92

Variant | enrichment factor
RGC | 0.61
SGC | 1.15
TGC | 0.677
VGC | 0.866
WGC | 0.0513
YGC | 1.3
DGC | 0.233
AGD | 0.189
EGD | 0.161
FGD | 0.182
GGD | 0.114
HGD | 0.145
IGD | 0.157
KGD | 0.437
LGD | 0.16
MGD | 0.106
NGD | 0.322
PGD | 0.0899
CGD | 0.201
QGD | 0.105
RGD | 0.311
SGD | 0.045
TGD | 0.261
VGD | 0.209

Variant | enrichment factor
WGD | 0.2
YGD | 0.136
DGD | 0.0919
AGE | 0.216
EGE | 0.217
FGE | 0.176
GGE | 0.17
HGE | 0.12
IGE | 0.138
KGE | 0.126
LGE | 0.194
MGE | 0.0812
NGE | 0.102
PGE | 0.168
CGE | 0.131
QGE | 0.157
RGE | 0.21
SGE | 0.0499
TGE | 0.167
VGE | 0.138
WGE | 0.399
YGE | 0.163
DGE | 0.149
AGF | 1.53

Variant | enrichment factor
EGF | 1.68
FGF | 1.04
GGF | 1.89
HGF | 2.43
IGF | 2.02
KGF | 2.09
LGF | 0.684
MGF | 0.509
NGF | 1.92
PGF | 1.32
CGF | 0.463
QGF | 1.37
RGF | 0.718
SGF | 1.57
TGF | 0.825
VGF | 1.75
WGF | 1.27
YGF | 1.42
DGF | 1.5
AGG | 0.872
EGG | 0.0554
FGG | 0.63
GGG | 0.214
HGG | 0.501

Variant | enrichment factor
IGG | 1.16
KGG | 0.263
LGG | 0.844
MGG | 0.255
NGG | 0.323
PGG | 0.113
CGG | 0.563
QGG | 0.176
RGG | 0.137
SGG | 0.441
TGG | 0.398
VGG | 1.37
WGG | 1.62
YGG | 0.277
DGG | 0.129
AGH | 1.73
EGH | 1.14
FGH | 1.21
GGH | 0.521
HGH | 1.65
IGH | 1.42
KGH | 1.86
LGH | 1.26
MGH | 1.52

Variant | enrichment factor
NGH | 1.57
PGH | 1.69
CGH | 0.135
QGH | 1.94
RGH | 1.63
SGH | 1.85
TGH | 1.9
VGH | 1.69
WGH | 1.53
YGH | 0.731
DGH | 0.106
AGI | 1.43
EGI | 0.507
FGI | 1.26
GGI | 0.323
HGI | 0.241
IGI | 1.1
KGI | 0.143
LGI | 0.857
MGI | 0.972
NGI | 1.06
PGI | 0.789
CGI | 0.322
QGI | 1.24

Variant | enrichment factor
RGI | 0.962
SGI | 1.33
TGI | 1.71
VGI | 1.8
WGI | 1.51
YGI | 0.324
DGI | 0.192
AGK | 0.163
EGK | 0.161
FGK | 0.136
GGK | 0.0755
HGK | 0.149
IGK | 0.169
KGK | 0.133
LGK | 0.155
MGK | 0.105
NGK | 0.109
PGK | 0.134
CGK | 0.142
QGK | 0.148
RGK | 0.232
SGK | 0.204
TGK | 0.159
VGK | 0.174

Variant | enrichment factor
WGK | 0.254
YGK | 0.111
DGK | 0.164
AGL | 1.76
EGL | 0.303
FGL | 0.751
GGL | 0.278
HGL | 0.18
IGL | 0.806
KGL | 0.221
LGL | 0.995
MGL | 0.805
NGL | 0.862
PGL | 0.402
CGL | 0.267
QGL | 0.978
RGL | 1.14
SGL | 1.08
TGL | 1.53
VGL | 1.63
WGL | 1.55
YGL | 0.248
DGL | 0.116
AGM | 1.39

Variant | enrichment factor
EGM | 1.52
FGM | 1.25
GGM | 1.49
HGM | 1.41
IGM | 1.15
KGM | 1.36
LGM | 0.904
MGM | 1.33
NGM | 1.71
PGM | 1.27
CGM | 0.672
QGM | 1.82
RGM | 0.86
SGM | 1.5
TGM | 1.2
VGM | 1.18
WGM | 0.98
YGM | 1.64
DGM | 0.365
AGN | 1.37
EGN | 0.0451
FGN | 0.621
GGN | 0.0936
HGN | 0.306

Variant | enrichment factor
IGN | 0.942
KGN | 0.382
LGN | 0.846
MGN | 0.821
NGN | 0.18
PGN | 0.69
CGN | 1.15
QGN | 0.452
RGN | 0.813
SGN | 0.725
TGN | 0.852
VGN | 1.29
WGN | 0.719
YGN | 0.241
DGN | 0.163
AGP | 0.124
EGP | 0.141
FGP | 0.476
GGP | 0.243
HGP | 0.13
IGP | 0.131
KGP | 0.0628
LGP | 0.169
MGP | 0.213

Variant | enrichment factor
NGP | 0.0827
PGP | 0.2
CGP | 0.201
QGP | 0.171
RGP | 0.262
SGP | 0.139
TGP | 0.195
VGP | 0.138
WGP | 0.856
YGP | 0.13
DGP | 0.137
AGQ | 1.45
EGQ | 1.18
FGQ | 0.974
GGQ | 2.14
HGQ | 1.33
IGQ | 1.02
KGQ | 1.51
LGQ | 1.14
MGQ | 1.59
NGQ | 1.59
PGQ | 1.37
CGQ | 0.436
QGQ | 1.47

Variant | enrichment factor
RGQ | 1.32
SGQ | 1.48
TGQ | 1.47
VGQ | 1.6
WGQ | 1.44
YGQ | 1.03
DGQ | 0.788
AGR | 0.131
EGR | 0.122
FGR | 0.209
GGR | 0.143
HGR | 0.17
IGR | 0.0987
KGR | 0.148
LGR | 0.192
MGR | 0.187
NGR | 0.0624
PGR | 0.153
CGR | 0.0954
QGR | 0.158
RGR | 0.132
SGR | 0.183
TGR | 0.17
VGR | 0.138

Variant | enrichment factor
WGR | 0.226
YGR | 0.0951
DGR | 0.155
AGS | 2.42
EGS | 0.808
FGS | 1.39
GGS | 0.44
HGS | 1.39
IGS | 1.21
KGS | 1.51
LGS | 0.891
MGS | 1.24
NGS | 1.66
PGS | 1.39
CGS | 0.26
QGS | 1.39
RGS | 1.21
SGS | 1.45
TGS | 2.52
VGS | 1.06
WGS | 1.13
YGS | 1.12
DGS | 0.158
AGT | 2.17

Variant | enrichment factor
EGT | 0.549
FGT | 1.01
GGT | 0.343
HGT | 0.635
IGT | 1.21
KGT | 0.877
LGT | 1.12
MGT | 0.971
NGT | 1.03
PGT | 1.04
CGT | 0.384
QGT | 1.13
RGT | 1.06
SGT | 1.23
TGT | 1.46
VGT | 1.47
WGT | 1
YGT | 0.815
DGT | 0.141
AGV | 1.72
EGV | 1.03
FGV | 1.07
